Variants at the background level are over-represented here.
B1: TPR 5TU (parent)
chain: GGAUCUUCUCGAUCUAACAAAAAAGACAAAUCUGCCACAAAGCUUGAGAGCAUCUUCGGAUGCAGAGGCGGCAGCCUUCGGUGGCGCGAUAGCGCCAACGUUCUCAACUAUGACACGCAAAACGCGUGCUCCGUUGAAUGGAGUUUAUCAUG

Variants of: B1
Experiment: polymerase ribozyme fitness, log enrichment relative to wild type (log ratio); higher = more active; in vitro selection for triplet polymerase activity
How it was run: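 Fitness compares each genotype's enrichment to that of the wild type on a logarithmic scale, averaging replicates with inverse-variance weights. The logarithm is base 2. Enrichment came from Illumina sequencing of input and output libraries after one triplicate round of in vitro selection, which included frozen incubation at −7 °C, of PCR-built, transcribed mutant libraries of each subunit of a heterodimeric triplet polymerase ribozyme. Only genotypes with ≥10 input reads and ≥1 read per output were kept.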
In the case of C27A C85G G94U U102G, the “polymerase ribozyme fitness (log ratio)” value is reported as no more than -4.2. In the case of A24G G80C G126C C131U, the “polymerase ribozyme fitness (log ratio)” value is reported as no more than -4.2. In the case of A24U G25A C69U C95G C103G, the “polymerase ribozyme fitness (log ratio)” value is reported as no more than -4.2. With A24G A52C A91C the “polymerase ribozyme fitness (log ratio)” value was no more than -4.2. With A24U G65U A91U C116A G141C the “polymerase ribozyme fitness (log ratio)” value was no more than -4.2. For A23U G81A A91U A106U, the “polymerase ribozyme fitness (log ratio)” value was no more than -4.2. In the case of A24U A49U C87A A91C U139A G143U, the “polymerase ribozyme fitness (log ratio)” value is reported as no more than -4.2. With G25C A60G G68C C96A the “polymerase ribozyme fitness (log ratio)” value was no more than -4.2. With A24C C38A C76U A120U U151C the “polymerase ribozyme fitness (log ratio)” value was no more than -4.2. In the case of A26C U55G G88A C93A A98U C118U U151A, the “polymerase ribozyme fitness (log ratio)” value is reported as no more than -4.2. In the case of A26U G42A C51U A52G C93A G133C U134A, the “polymerase ribozyme fitness (log ratio)” value is reported as no more than -4.2. With G25U A30G A91U U109A A115G G124A the “polymerase ribozyme fitness (log ratio)” value was no more than -4.2. In the case of A24U G34A A52C C76A A121U, the “polymerase ribozyme fitness (log ratio)” value is reported as no more than -4.2. With A24U C38G U45A G74A C93A G100C G126A U145A the “polymerase ribozyme fitness (log ratio)” value was no more than -4.2. With A26G G70C C87G C103A the “polymerase ribozyme fitness (log ratio)” value was no more than -4.2. In the case of G25A C51G C95U U104A G124U C129U, the “polymerase ribozyme fitness (log ratio)” value is reported as no more than -4.2. For C27A C36U C43U G46C G83U, the “polymerase ribozyme fitness (log ratio)” value was no more than -4.2. For A26U C85G C105A, the “polymerase ribozyme fitness (log ratio)” value was no more than -4.2. For A24C A40U C149G, the “polymerase ribozyme fitness (log ratio)” value was no more than -4.2. With A24C U61A G86A U90C A110G U135G the “polymerase ribozyme fitness (log ratio)” value was no more than -4.2. In the case of A24C A40U G50C A73U C79U C85G, the “polymerase ribozyme fitness (log ratio)” value is reported as no more than -4.2. For A24U A37C A49G C76U G88C C103A C105G G143U, the “polymerase ribozyme fitness (log ratio)” value was no more than -4.2. With A26G U53A C76G G81A the “polymerase ribozyme fitness (log ratio)” value was no more than -4.2. For A24U C75G G84C C95U, the “polymerase ribozyme fitness (log ratio)” value was no more than -4.2. With A26U A41C G50C C57G A66C C96G U130C the “polymerase ribozyme fitness (log ratio)” value was no more than -4.2. In the case of A24C A29U G50U A52U U53A U55A G88U G141A, the “polymerase ribozyme fitness (log ratio)” value is reported as no more than -4.2. For A26C A40G G74U U109C, the “polymerase ribozyme fitness (log ratio)” value was no more than -4.2. In the case of A24C C38U C57A, the “polymerase ribozyme fitness (log ratio)” value is reported as no more than -4.2. For A24G C32G G48C G50A G86U, the “polymerase ribozyme fitness (log ratio)” value was no more than -4.2. With A24G C32G U45G C72U C95A C103G G133A the “polymerase ribozyme fitness (log ratio)” value was no more than -4.2. In the case of A24U A29U G58C G67A G92U C105G A113C, the “polymerase ribozyme fitness (log ratio)” value is reported as no more than -4.2. In the case of A26G C51U G88A U127C A138U U148C, the “polymerase ribozyme fitness (log ratio)” value is reported as no more than -4.2. With A24G A37U A41U U77G C96U C105G the “polymerase ribozyme fitness (log ratio)” value was no more than -4.2. In the case of A24U A66G U104G C105U C118A C149A, the “polymerase ribozyme fitness (log ratio)” value is reported as no more than -4.2. With A26G C85A G117A G143A U145C the “polymerase ribozyme fitness (log ratio)” value was no more than -4.2. In the case of A24C A39G A49U G86A C87G A106C G136U A150C, the “polymerase ribozyme fitness (log ratio)” value is reported as no more than -4.2. In the case of A23U G59C G62C G70U, the “polymerase ribozyme fitness (log ratio)” value is reported as no more than -4.2. For A26U C32U U33C A98G A119U, the “polymerase ribozyme fitness (log ratio)” value was no more than -4.2. For A24U C54A A89U A91U C95G C132U U146G, the “polymerase ribozyme fitness (log ratio)” value was no more than -4.2. For A26C A40U G68A C87G C99U, the “polymerase ribozyme fitness (log ratio)” value was no more than -4.2. For C27A A41C C87A G124C U139A, the “polymerase ribozyme fitness (log ratio)” value was no more than -4.2. With G25U A89G C93A C99G C123A G133C the “polymerase ribozyme fitness (log ratio)” value was no more than -4.2. With A26G C43G A52C C54A C93U U144C the “polymerase ribozyme fitness (log ratio)” value was no more than -4.2. With A23U C57A G80A U145A the “polymerase ribozyme fitness (log ratio)” value was no more than -4.2. With A26G A30G G42C C51G U56A G68A G88A A91G C99G the “polymerase ribozyme fitness (log ratio)” value was no more than -4.2. With A24G U78G G86A the “polymerase ribozyme fitness (log ratio)” value was no more than -4.2. With A26U C75G A91G A110G U146G the “polymerase ribozyme fitness (log ratio)” value was no more than -4.2. In the case of A24G C93U A98C C103U, the “polymerase ribozyme fitness (log ratio)” value is reported as no more than -4.2. For C27A C36G U90A C96U U134A, the “polymerase ribozyme fitness (log ratio)” value was no more than -4.2. In the case of A24G A26G G83C U145C, the “polymerase ribozyme fitness (log ratio)” value is reported as no more than -4.2. With A26G G50A U53A C57G G80A C85G the “polymerase ribozyme fitness (log ratio)” value was no more than -4.2. With A24G G48A A115G U139G U144G the “polymerase ribozyme fitness (log ratio)” value was no more than -4.2. For A24G C69G, the “polymerase ribozyme fitness (log ratio)” value was no more than -4.2. With G25U C43U A47C U55A U101C A120G the “polymerase ribozyme fitness (log ratio)” value was no more than -4.2. In the case of A24U C85U C108A, the “polymerase ribozyme fitness (log ratio)” value is reported as no more than -4.2. With G25U A49G A52G C87A G94A U104A A107G G126U the “polymerase ribozyme fitness (log ratio)” value was no more than -4.2. With A26C G42U G80U G83U G100C C149U the “polymerase ribozyme fitness (log ratio)” value was no more than -4.2. For A24G A66U A91G, the “polymerase ribozyme fitness (log ratio)” value was no more than -4.2. With A26G A40U G48U C87A U139A the “polymerase ribozyme fitness (log ratio)” value was no more than -4.2. In the case of A23U G67C C76U C87A A106G A137G, the “polymerase ribozyme fitness (log ratio)” value is reported as no more than -4.2. In the case of A23U C85A A97U G141C, the “polymerase ribozyme fitness (log ratio)” value is reported as no more than -4.2. With G25C A28U G80C C87U A89G the “polymerase ribozyme fitness (log ratio)” value was no more than -4.2. For G25A A26C C85A G133C, the “polymerase ribozyme fitness (log ratio)” value was no more than -4.2. In the case of A24G C35U G48U U56A U61C C95G C105G, the “polymerase ribozyme fitness (log ratio)” value is reported as no more than -4.2. For A24G G46U C54U C93U C114U, the “polymerase ribozyme fitness (log ratio)” value was no more than -4.2. With A24G A52G C57U C87A U109G C118U A142U G152U the “polymerase ribozyme fitness (log ratio)” value was no more than -4.2. For A24U G74U C99U, the “polymerase ribozyme fitness (log ratio)” value was no more than -4.2. For A26C A29G A91U G94A C105G G117U, the “polymerase ribozyme fitness (log ratio)” value was no more than -4.2. For A26C A39C A89C G94A G143U, the “polymerase ribozyme fitness (log ratio)” value was no more than -4.2. With A24C C38U C54U A73G G83C C85U U102G C105U C116U the “polymerase ribozyme fitness (log ratio)” value was no more than -4.2. With G25A C35G A37U U55A A91U A142C U145A the “polymerase ribozyme fitness (log ratio)” value was no more than -4.2. For A24G G50C C87U A120G, the “polymerase ribozyme fitness (log ratio)” value was no more than -4.2. With A24C A52U C79A A89G C95G C108G A138U U144G the “polymerase ribozyme fitness (log ratio)” value was no more than -4.2. For G25C G48C G86U G143A, the “polymerase ribozyme fitness (log ratio)” value was no more than -4.2. For A26C C85U U102G C114A, the “polymerase ribozyme fitness (log ratio)” value was no more than -4.2. For G25C G80A G88C G94U G143U, the “polymerase ribozyme fitness (log ratio)” value was no more than -4.2. For A24C A52G G86A C132A, the “polymerase ribozyme fitness (log ratio)” value was no more than -4.2. In the case of A26C A39G G59C G92A U145C U148A, the “polymerase ribozyme fitness (log ratio)” value is reported as no more than -4.2. In the case of A24U A39C C85G A107U C125G, the “polymerase ribozyme fitness (log ratio)” value is reported as no more than -4.2. For A24U U90G G143C G152A, the “polymerase ribozyme fitness (log ratio)” value was no more than -4.2. For G25U A39U U44C C79U C87G, the “polymerase ribozyme fitness (log ratio)” value was no more than -4.2. With A23U C76U C93U C99G the “polymerase ribozyme fitness (log ratio)” value was no more than -4.2. With A24U G84A C93G C103G C105G U135G C149G the “polymerase ribozyme fitness (log ratio)” value was no more than -4.2. With G25C U55C G86C A89G G126A A142U the “polymerase ribozyme fitness (log ratio)” value was no more than -4.2.

From the RNAGym collection of RNA variant scans (doi:10.1073/pnas.2313332121)
